The other results are listed elsewhere or left out.
test system: PfSIP2 AP2 domain 1 (GST-tagged); assay: gcPBM binding intensity (ln(normalized median fluorescence intensity)); higher = stronger DNA binding
Summary of the method: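 GST-fused DNA-binding domains of P. falciparum, expressed in E. coli, were applied at about 25 μg on average for 1 h to an Agilent 4 × 180k array of primer-extended double-stranded 36-bp intergenic genomic probes and negative controls. Binding intensity is the highest Masliner-normalised natural-log median intensity across replicate spots of either probe orientation, measured with Alexa488 anti-GST antibody and a 488 nm scan.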

Sequence | gcPBM binding intensity (ln)
AATTAGCTCAAAGGTTGTACAAATATATTTTAATGG [XGTACX_site2352] | 6.88
TTTTAAACACCAATCAAAAAAATATAAATATAAATA [TGCATGCA_negctrl_site552] | 7.08
AAAAAAAATAATTTGCGTACATAAAAATTTATAGGA [XGTACX_site3016] | 7.44
AAATTTTTTTTTGTCATATGATGTTTGAACCCAAAT [CACACA_negctrl_site1659] | 7.08
TCCGTATATTTATACGCATGCATTATGAACATTGTT [TGCATGCA_site613] | 6.96
TTACATTGTAAAAAGTGTACATATAATTTAATTAAT [XGTACX_site1834] | 7.13
ATGTAGACTGAAACCACACACACATATATATATATA [CACACA_site606] | 9.33
GGATTACAAATAGGTTGTACGTTTTTTTTTTTTTCT [XGTACX_site3605] | 7.27
AATTTATTTTTTTAATGTACATATGGTATAAATATA [XGTACX_site8012] | 7.06
TGTTGATTTCTCAAATGTACTTTACTTTTCTTCAGA [XGTACX_site7916] | 6.76
TTTTTTTTTTTTAATTGTACATTTTATATAAACTTT [XGTACX_site6806] | 6.99
AATATATATATATGTACACACTCCAATACATATACA [CACACA_site2682] | 7.33
TTAAGAATATCTTAGAGTACATTTTATCATCTTAAA [XGTACX_site8298] | 6.67
TCTTTTTAAATTACTATAATACATTCATAAATTATA [GTGCAC_negctrl_site448] | 6.99
TTTTTTTATTTTATAAAGCAAAAATAAGAATGAAAT [XGTACX_negctrl_site270] | 7.28
AGGGAATAAGTAAGGTGTACATAATTATGTTACTTT [XGTACX_site6152] | 7.15
TATATGTATGTATGTACACACAAAAAATGGAATATA [CACACA_site3717] | 7.17
ATATATATTTATATTTGTACGAATTAAAATTTTTTA [XGTACX_site5200] | 7.11
ATTTAAAACAAAAGTAGTACGTCTAATAAATTCAAC [XGTACX_site4344] | 6.93

Sequence | gcPBM binding intensity (ln)
TTATCAATAAAATGCACACACTGTAATATTATTAAA [CACACA_site6055] | 7.18
ATAGCTTTTATTTAAAGTACAAAAAGGATGTTGAAA [XGTACX_site3810] | 6.95
AGACAAAATGTTTGAAGTACTTTTTATCAAATTAAA [XGTACX_site8885] | 6.86
AAAAAAAAAAAACACACACACACACCCATACATACA [CACACA_site707] | 7.14
TGATTTTTTCATATTCTACACACGTGAACAAATGTG [CACACA_site8987] | 6.84
TTAATTATTATATAAGTGCAATAATAAAAAGTTGTA [GTGCAC_site9552] | 7.68
TTGTTAATAAATAAATAAATAAATATATTTATATAT [GTGCAC_negctrl_site271] | 6.88
TACAAAAAAAAAAAATAGATAAAATAATAATCAAAT [TGCATGCA_negctrl_site524] | 6.69
ATATATTGAACATATTGTACATTTTGTTAATATTTT [XGTACX_site7622] | 6.91
TCTCAAGTTGTTAAAAAATAAAAACAATAAATCTAA [CACACA_negctrl_site165] | 6.75
AACAATTGGAATAACGCATGCATTTATAATATAGAA [TGCATGCA_site298] | 7.01
CAATTTTTTAAATGCACACAAAAGGAATAAATAAAT [CACACA_site544] | 8.6
AAGAAGAAATGCTTTGCATGCAAATTTTATGCCAAC [TGCATGCA_site721] | 6.64
TGAATATTCCTATGCACACAAATTAAAATACATAAT [CACACA_site4403] | 7.92
ACAAATTTATACTTAAAACACACGTAATCATTTATA [CACACA_site1636] | 7.12
TAAAATAATTTATGCATACACACATATATATATATA [CACACA_site4021] | 9.23
TACAATTTTTTAAATGCACACAAAAGGAATAAATAA [CACACA_site8075] | 9.32
TAATATATGTATTGCACACCTATAACCATTATTTCT [CACACA_site1498] | 7.06
AAAAGCAAGTTCCAGGGTACATATATATGAAAAAAC [XGTACX_site2408] | 7.1

Sequence | gcPBM binding intensity (ln)
AAAAATATGTCCATGAAAAGGATAGGCAGGTAATCA [XGTACX_negctrl_site93] | 6.78
AAATATATTTTACATTGTACATGAATAAACTATAAA [XGTACX_site2080] | 7.05
AAAAATTAAATAAATTTACACACTAATAATTACATA [CACACA_site8260] | 6.53
TCTTGTTTTCAAATATGTACATAGAATAGACATTTT [XGTACX_site684] | 6.98
AAATATATAAAATATACACACAGTAATATATATATA [CACACA_site1385] | 8.61
AAGTTTTATTTAAATTGTACTAAAATTTTTATATTA [XGTACX_site7065] | 6.84
TATATATAAATATTCAGTACATAGTATTATTAAGTA [XGTACX_site1980] | 6.98
ATAAAATGAACAAACACACACACATATATATATATA [CACACA_site2402] | 9.2
CCTAAAAAAAAGAAATGATATACATATGTATATATA [GTGCAC_negctrl_site100] | 7.02
CATATAAATAAATACACACACACACGCCTTATAATT [CACACA_site7830] | 7.2
TATTTAAGAATATGAAGTACATATATTATTTAAAAA [XGTACX_site7897] | 7
TATATAGGTATCATTACACACATGTATACTTATTTG [CACACA_site7864] | 7.14
TTTTTCTTTCTCTATTGTACACATGGAAACACATAA [XGTACX_site4601] | 7.48
TTCATTTTAATTTCCAGTACACATATATATACATAT [XGTACX_site558] | 7.2
ATGTCATAAATGTACGCACACATACATAAACATATA [CACACA_site4530] | 7.33
ATTTATTTCTATAATACACACAAATATCTTAATTAA [CACACA_site7801] | 6.77
AATATAATACAATATTGTACATAATATAAATTAAAA [XGTACX_site4064] | 6.94
TATATGTTATATTGGACACACACAATAAACATTATG [CACACA_site8480] | 7.03

— the supplement of paper PMC11417369
